Reference: PubChem BioAssay AID1240 (Sanford-Burnham Center for Chemical Genomics, 2008)
The whole screen tested about 50,000 compounds, of which about 800 (1.6%) showed an effect of 50% or more. Some of the results follow.

target: Bcl-2-like protein 10 (Homo sapiens) (UniProt Q9HD36); experiment: Phenotype converters, Bcl-B/TR3 peptide binding displacement, primary biochemical FP (AID 1240); conditions: GST-Bcl-B / FITC-TR3 peptide fluorescence polarization; stronger effect = higher value; compound at 3.75 mg/L;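 note: 0% = Bcl-B with tracer peptide and DMSO and 100% = tracer peptide lacking Bcl-B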
UniProt Q9HD36, sequence (Q9HD36 whole entry, looked up): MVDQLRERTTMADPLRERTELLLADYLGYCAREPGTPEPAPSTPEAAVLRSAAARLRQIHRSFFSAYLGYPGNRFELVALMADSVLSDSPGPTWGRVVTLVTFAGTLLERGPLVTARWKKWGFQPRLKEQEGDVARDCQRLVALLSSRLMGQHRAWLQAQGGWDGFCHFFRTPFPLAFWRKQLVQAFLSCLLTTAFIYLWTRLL

SMILES	displacement
CSc1ccc(/C=C/C(=O)c2cccc(N)c2)cc1	-6.9%
CC(=O)OC12CC3CC(C1)C(=O)C(C3)C2	-13.3%
FC(F)(F)c1ccc(/C=N/N2CCN(Cc3cccc4ccccc34)CC2)cc1	16.9%
Cc1cccc(C)c1-n1c(C)n[nH]c1=O	11.2%
CC(C)(C)c1cc(C(F)(F)F)c2c(=O)n(-c3ccccc3)[nH]c2n1	7.6%
COc1cccc(C(=O)N2CCN(c3ccccn3)CC2)c1	-10.3%
Cc1ccc(OCC(=O)NCc2ccco2)c(C)c1	-2.9%
O=C(Oc1cc(-c2ccccc2)c2oc(=O)sc2c1)c1ccc([N+](=O)[O-])cc1	6.4%
CN(CCN(C)/N=C/c1ccc(O)cc1O)/N=C/c1ccc(O)cc1O	-4.2%
N#Cc1nc(-c2ccc([N+](=O)[O-])cc2)oc1NCc1ccccc1	11.4%
c1cc(CSc2nc3ccccc3o2)nc(CSc2nc3ccccc3o2)c1	-15.1%
C(=NN1CCN(c2ccccn2)CC1)c1cccc2ccccc12	-7.3%
CCN(CC)CCOc1c(C)cc(C)cc1Cl	-0.6%
NC(=O)NC(c1ccccc1)c1ccc(I)cc1 (stereo unspecified)	2.7%
CC(=O)N(/C=C/c1cc[n+](CCCS(=O)(=O)[O-])c2ccccc12)c1ccccc1	-7.9%
Cc1cc(C(=O)O)c(-c2ccccc2)o1	-8.4%
CCCOc1cccc(C(=O)Nc2cccc(NC(=O)c3ccco3)c2)c1	11%
Cc1ccc(NC(=O)C2CC=CCC2C(=O)O)c(Br)c1 (stereo unspecified)	10.9%
CCCCc1cc(=O)oc2cc(OC(C)=O)ccc12	-7.7%
OCc1ccc(-c2ccc(Cl)cc2Cl)o1	-1.9%
COc1ccc2c(c1OC)C(=O)N(c1cccc(/C=C/C(=O)O)c1)C2	9.4%
Cc1cc(C)c(C2=C(C#N)C(N)=C(C#N)C3=CCCCCC32)c(C)c1 (stereo unspecified)	13.4%
O=C(NCCNc1ccc(Cl)cc1[N+](=O)[O-])c1ccccc1Cl	9.6%
NS(=O)(=O)c1ccc(NC(=O)CSc2nnnn2-c2ccccc2)cc1	0%

SMILES	displacement
COc1cc(/C=C2\SC(=Nc3ccc(F)cc3)NC2=O)cc(OC)c1OC	-17%
CCOc1ccc(N(CC(=O)N2CCOCC2)S(=O)(=O)c2ccc(Br)cc2)cc1	0.5%
O=C1c2ccccc2C(=O)c2c1cc(NC1CCCCC1)c1nsnc21	15.8%
CC(C)(C)NC(=O)C1(C)CC2c3ccccc3C1c1ccccc12 (stereo unspecified)	7.8%
O=C(CCN1CCOCC1)NC12CC3CC(CC(C3)C1)C2	-7.7%
C=CCN1C(=O)/C(=C\c2ccc(OC(=O)c3cccc(Br)c3)cc2)SC1=S	13.7%
CCOc1ccc(C2CC(=O)NC(SCc3ccccc3)=C2C#N)cc1OC (stereo unspecified)	-11.9%
CC1=CC(C)(C)N(C(=O)c2ccc(NS(C)(=O)=O)cc2)c2ccc(C)cc21	0.7%
CCN1CCN(CC(O)COc2ccccc2C(C)(C)C)CC1 (stereo unspecified)	-9.6%
CC(NC(=O)C(=O)Nc1ccccc1F)c1ccccc1 (stereo unspecified)	0.3%
CC(NC(=O)C12CC3CC(CC(C3)C1)C2)C(=O)N1CCCC1 (stereo unspecified)	-7.2%
CCSc1nnc(NC(=O)CCCOc2ccc(Cl)cc2Cl)s1	23.4%
CC(=O)C1=C(O)C(=O)N(CCN2CCNCC2)C1c1ccccc1 (stereo unspecified)	-8%
COC(=O)CCC(=O)NNc1ccc([N+](=O)[O-])cc1	0.3%
Cc1cc(C(=O)Nc2cccc3ccccc23)c(-c2ccccc2)o1	10.4%
CCc1ccccc1N1C(=O)NC(=O)/C(=C\c2ccc(I)o2)C1=O	8.5%
O=C1N=C(N2CCCCCC2)S/C1=C\c1cccc(O)c1	-16.2%
C/C(=N/Nc1nc(-c2ccccc2)cs1)C(C)(C)C	-33.2%
CC(C(=O)Nc1ccccc1Br)N1C(=O)c2ccccc2C1=O (stereo unspecified)	-7.2%
CCCOc1ccc(N2C(=O)CC(N3CCC(C(N)=O)(N4CCCCC4)CC3)C2=O)cc1 (stereo unspecified)	-9.1%
CCCOc1ccc(C(=O)Nc2ccc(-c3nc4ccccc4o3)c(O)c2)cc1	15.1%
O=C(Nc1ccc(Cc2ccncc2)cc1)c1ccc(-c2cccc([N+](=O)[O-])c2)o1	-4.7%
COc1ccc(/C=N/N2CCN(Cc3cccc4ccccc34)CC2)cc1Br	6.7%
COc1ccc(OCC(=O)Oc2ccc3c(c2)C(C)=CC(C)(C)N3)cc1	11.4%

SMILES	displacement
CCOC(=O)C1=C(C)N=c2s/c(=C\c3ccc(C)o3)c(=O)n2C1c1cccc(OC)c1 (stereo unspecified)	73.3%
CCOc1cc(/C=C2/SC(=O)NC2=O)ccc1OCc1ccc(Cl)cc1	-0.8%
CC1(C)CC(=NNC(=O)c2ccc(Br)o2)CC(C)(C)N1	-5.8%
N#Cc1c(N)nc(SCC(=O)c2ccc(O)c(O)c2)c(C#N)c1-c1ccc(O)cc1	-21.6%
CCOc1cc(/C=C(/C#N)C(=O)Nc2cccc(Br)c2)cc(Cl)c1OCC(=O)O	2.7%
CCn1c2ccccc2c2nnc(SC)nc21	10.3%
Cc1ccc(CCNc2ccc3ccccc3c2)cn1	10.5%
O=C(Nc1ncc(Cc2ccc(Cl)c(Cl)c2)s1)c1ccccc1Cl	-0.2%
O=C1CC(N2CCN(c3ccc(Cl)cc3)CC2)C(=O)N1c1cc(Cl)cc(Cl)c1 (stereo unspecified)	5.4%
O=[N+]([O-])c1ccc(Cl)c(/C=N/Nc2nc3ccccc3s2)c1	2.4%
CC1=NN(c2cccc(F)c2)C(=O)/C1=C\c1ccc(N(C)C)cc1	2.9%
Cc1cccc(N2C(=O)/C(=C/c3cccc(F)c3)SC2=S)c1C	-1.9%
O=C1/C(=C/c2ccccc2)SC(=S)N1/N=C/c1ccccc1	21.2%
C=CCSc1[nH]c(=O)c(C(=O)OCC)cc1C#N	34.8%
CC1(C)CC(=O)C=C(/C=C/c2ccc(N3N=N3)cc2)C1	-4.1%
CCOC(=O)/C(C#N)=C\c1cn(CCC#N)nc1-c1ccc(C)o1	-1.3%
O=C1/C(=C/c2cccc([N+](=O)[O-])c2)SC(=S)N1C1CCS(=O)(=O)C1 (stereo unspecified)	2.2%
O=C(N/C(=C/c1ccc(Cl)cc1)C(=O)N1CCCC1)c1ccccc1	-6.6%
COc1ccc(OC)c(/C=c2\sc3nc4c(Br)c(C)c(C)cc4n3c2=O)c1	19.8%
COc1ccc(NC(=S)NC(=O)COc2ccc(Cl)cc2)cc1	12.2%
Clc1ccc(CN2CCN(Cc3ccncc3)CC2)cc1	-4.9%
O=C(NC(=S)Nc1ccc([N+](=O)[O-])cc1O)C12CC3CC(CC(C3)C1)C2	6.1%
OCc1cccc(N=Cc2cccc(Cl)c2Cl)c1	-2.8%
